Whole data set: some 33,000 sequences, median “E-score (-0.5 to 0.5)” near -0.043, cut for the highest 2% near 0.37. This is one part of the list.

The values below come from the supplement of paper PMC3334620.

For the test, the target named is T1, Upc2 (UniProt Q12151).
T1 sequence: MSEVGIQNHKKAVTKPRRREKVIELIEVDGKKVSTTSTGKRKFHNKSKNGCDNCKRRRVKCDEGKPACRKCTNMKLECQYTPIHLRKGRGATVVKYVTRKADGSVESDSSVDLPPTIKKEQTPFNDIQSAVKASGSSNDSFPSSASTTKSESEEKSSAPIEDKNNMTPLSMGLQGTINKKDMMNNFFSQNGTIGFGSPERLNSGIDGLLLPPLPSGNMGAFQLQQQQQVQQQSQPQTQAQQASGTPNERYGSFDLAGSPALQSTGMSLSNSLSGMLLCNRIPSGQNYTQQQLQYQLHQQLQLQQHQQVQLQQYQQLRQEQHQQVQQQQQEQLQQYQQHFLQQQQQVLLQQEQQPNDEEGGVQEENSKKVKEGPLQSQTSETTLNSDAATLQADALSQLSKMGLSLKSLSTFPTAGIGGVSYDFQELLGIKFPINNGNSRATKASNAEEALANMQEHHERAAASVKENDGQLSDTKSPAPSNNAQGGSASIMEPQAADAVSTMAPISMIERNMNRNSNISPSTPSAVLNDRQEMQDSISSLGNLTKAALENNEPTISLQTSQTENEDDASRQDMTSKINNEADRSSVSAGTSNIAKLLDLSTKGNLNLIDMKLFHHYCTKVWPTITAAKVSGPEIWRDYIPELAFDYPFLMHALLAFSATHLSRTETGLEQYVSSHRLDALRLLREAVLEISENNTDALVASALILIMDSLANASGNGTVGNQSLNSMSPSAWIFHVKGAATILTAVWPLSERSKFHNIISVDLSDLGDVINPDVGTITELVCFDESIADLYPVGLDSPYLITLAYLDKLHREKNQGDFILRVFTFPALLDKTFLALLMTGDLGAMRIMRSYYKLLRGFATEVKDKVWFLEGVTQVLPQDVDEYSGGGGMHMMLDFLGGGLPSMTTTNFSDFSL
The test is described as follows: PBM E-score (8-mer binding enrichment) (E-score (-0.5 to 0.5)); higher = stronger / more preferred TF binding; most listed sequences are background and not binding sites. The settings on record: protein concentration: 200 nM; construct: GST-full length. In outline: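 Full-length yeast transcription factors or their DNA-binding domains, GST-tagged and expressed with PURExpress, were applied at about 100-200 nM to universal all-10-mer Agilent arrays. These arrays had been made double-stranded by primer extension on fresh or once-stripped slides. Detection used fluorescent anti-GST, normalisation used masliner, and E-scores for ungapped eight-base words pooled with reverse complements came from the Universal PBM Analysis Suite.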
Consider CGCACTGA, for which the “PBM E-score” value is -0.163.
With ACCCGCCG, the “PBM E-score” value was 0.0788.
For GCTAAGGA, the “PBM E-score” value was -0.205.
To CCTTTGAC belongs -0.212.
The value for CTCTTGGC was -0.271; that for CGCGTCAC was -0.0461; that for ATTTCAGG was -0.0274.
Take GCCATTGA: the “PBM E-score” value is -0.0727.
On to CCAACTTA, for which the “PBM E-score” value was -0.063.
The value for GAAGCTGC was -0.142; that for ATGTTGGC was -0.107; that for AAGTGACC was -0.0831.
The value for CGAAGGCA was 0.0006; that for AGAATGCG was 0.122; that for AGCAGCCG was -0.0553.
Take TCAGCCAA: the “PBM E-score” value is -0.177.
To ATCTCGCA belongs 0.211; to AAGACTAA, -0.126; to ATGTCACA, -0.137.
To TGATGGAA belongs -0.186; to AATGTGAG, -0.135.
The value for GTTTAAAA was 0.242.
For the sequence CTAGTAAA, the “PBM E-score” value is -0.00018.
The value for ACAGGCGA was -0.251; that for CGACTGCC was 0.0119; that for ATTAAACG was 0.461.
To ACAGCTCG belongs 0.181; to GACCTTCA, -0.128; to AAGGACGT, 0.0675.
To TATGGGGA belongs -0.00994; to ACATGCCG, 0.074.
On to TAGCGCTA, for which the “PBM E-score” value was found to be 0.26.
To ATCGGTAC belongs 0.228; to ATCATAGA, -0.0573; to CTATCGTC, -0.0375.
To CTGGCTTC belongs -0.113; to ACGAAAAC, 0.291; to AAAGTCGT, 0.244.
The value for AAGCGGCT was -0.0364; that for ATCCCAAC was 0.0433.
Take CAAAACTG: the “PBM E-score” value was -0.0519.
The value for CGCTTCAA was 0.181; that for CCTTTCGA was 0.0842; that for GCGCTTTA was 0.179.
The value for AGTTCTTC was 0.099; that for ACTACACG was 0.209; that for ATCTTTTG was 0.11.
Consider AGTTACTA, for which the “PBM E-score” value came out at 0.0304.
The value for CGATCAAG was -0.00683; that for GACTAGGA was -0.176.
To CTGGCCTA belongs -0.108; to GAGCAACA, -0.0943.
CACGGCTA: the “PBM E-score” value is -0.137.
The value for TCGGACCA was -0.0452.
The value for CTATGACC was 0.104; that for AACTATCG was 0.107.
To GCGAGATA belongs 0.237; to ACGAGAGC, 0.375.
Consider AGGGCTAA, for which the “PBM E-score” value is -0.163.
The value for ACTAGCTA was 0.114; that for CGAAGACA was 0.0359.
The value for AGGCACTG was -0.0625; that for CCTGCAAG was -0.108.
With TGACGGAA, the “PBM E-score” value was -0.0592.
The value for AGAGCCCT was -0.182; that for AACGCGCT was 0.152; that for CCACTGGC was -0.217.
To GCAAATTA belongs -0.0486; to CGGCGAGC, 0.144; to GCGATAAA, 0.128.
The value for ACTGGGAG was -0.223.
Consider AGCGGGGG, for which the “PBM E-score” value is -0.3.
The value for CAGGCGAA was -0.155; that for AATAGTAA was -0.107; that for AAGTTGCC was -0.00513.
The value for ATGGCCCG was -0.118.
To AAGGCTCA belongs -0.206; to TACTCTAA, 0.052.
For AGGGGTCA, the “PBM E-score” value is -0.239.
To CATTCGTA belongs 0.416; to ACATCATG, -0.215; to GCTGACAC, -0.0878.
The value for AAAGCGTT was 0.00802; that for CCCGTAGG was -0.0508; that for CGAGTTAG was 0.16.
The value for GACAGGGA was -0.125.
